Among all 320,000 compounds or so, about 200 (0.062%) were called active. Inconclusive results, whose numbers are uncertain, are shown with a selection of clear calls. Calls follow the shape of the dose curve; as a rule, active = well fitted activation curve with a large enough effect; inconclusive = small, poorly fitted or top-dose-only effect; inactive = no such curve, though single readings can be large or run the other way. No potency is given beside an inconclusive call; the fits are too rough.
Assay: qHTS assay for re-activators of p53 using a Luc reporter; also: nearly all actives have a fitted effect of over 45% in size
Settings: H1299 p53-A138V BP100-luciferase reporter, luminescence, 24 h; series mostly up to 92.2 µM
Summary of the method: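 H1299 (p53-null), stable ts p53-A138V + BP100-Luc; 1000 cells/well, Opti-MEM/10% FBS; cpd 4 pt, 1:5; 24 h, 37 deg C, 5% CO2; detection reagent 10 min RT; luminescence.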
Potency is read from the fitted curve at half-maximal effect; tags tell the direction and shape of the fitted curve.

Row | Compound | Potency
1 | Cc1csc(NC(=O)c2ccc(COc3ccccc3)o2)n1 | inconclusive [activator, full curve, poor fit]
2 | CC(=O)Nc1nc(-c2ccccc2)ns1 | inconclusive [activator, partial curve]
3 | Cc1ccc(Nc2nc3nonc3[nH]c2=O)cc1C | inconclusive [activator, partial curve, poor fit]
4 | CCOC(=O)c1sc(Nc2ccc(F)cc2)nc1C | inactive
5 | CCc1nc(N2CCN(C(=O)c3ccco3)CC2)c(C#N)c2c1COC(C)(C)C2 | inactive
6 | COCCCNC(=S)N/N=C/c1ccc(N(C)C)cc1 | inactive
7 | CC(C)(C)c1ccc(O)c(/C=N\O)c1 | inconclusive [activator, single point]
8 | CC(=O)Nc1ccc(-c2cn3cc(C)ccc3n2)cc1 | inconclusive [activator, partial curve, poor fit]
9 | O=C(O)Cc1ccc2sc(-c3ccccc3)nc2c1 | inconclusive [activator, single point]
10 | O=C(C1CCN(S(=O)(=O)c2c(Cl)cccc2Cl)CC1)N1CCCCCCC1 | inactive
11 | O=C(NNC(=O)c1cccs1)c1cccc(F)c1 | inactive
12 | CCOc1ccc(/C=C2\CCc3ccccc3C2=O)cc1 | inconclusive [activator, full curve, poor fit]
13 | Cc1nc(NCC2CCCO2)c2nnn(Cc3ccccc3)c2n1 (stereo unspecified) | inactive
14 | COC(=O)Cc1ccc(NC(=O)c2ccc(C)c(C)c2)cc1 | inconclusive [activator, partial curve, poor fit]
15 | Cc1ccc(-c2nc3cc(Cl)ccc3o2)cc1 | inconclusive [activator, partial curve, poor fit]
16 | C#CCN(Cc1ccccc1)S(=O)(=O)C=C | inconclusive [activator, full curve, poor fit]
17 | COc1cccc(-c2cc(C(=O)Nc3cc(C)on3)no2)c1 | inconclusive [activator, single point]
18 | O=C(NCc1ccccc1)c1ccc(Br)cc1Br | inactive
19 | COc1ccc(OCc2cc(C(=O)N3CCN(CC4CC4)CC3)no2)c(Cl)c1 | inconclusive [activator, full curve, poor fit]
20 | O=C(Nc1cccc([N+](=O)[O-])c1)N1CCCc2ccccc21 | inconclusive [activator, partial curve, poor fit]
21 | Cc1cc(C)cc(OCc2ccc(C(=O)O)o2)c1 | inconclusive [activator, partial curve, poor fit]
22 | CCN(CC)CCNC(=O)c1ccc(Cl)c(S(=O)(=O)Nc2ccc(Cl)cc2)c1 | inactive
23 | Cc1cccc(N=c2oc3cc(O)ccc3cc2C(N)=O)c1 | inconclusive [activator, partial curve, poor fit]
24 | O=C(OCC(=O)N1CCN(C(=O)c2ccco2)CC1)c1cccc(F)c1 | inconclusive [activator, partial curve, poor fit]

Row | Compound | Potency
25 | O=C(c1cccc(S(=O)(=O)N2CCCC2)c1)N1CCCc2ccccc21 | inactive
26 | COCCc1nnc(NC(=O)Cc2ccccc2)s1 | inconclusive [activator, single point]
27 | COC(=O)CN1C(c2ccc(Cl)cc2)=Nc2ccc(Cl)cc2C1c1ccccc1 (stereo unspecified) | inconclusive [activator, single point]
28 | O=c1cc(-c2ccccc2)[nH]n1-c1nc2ccccc2s1 | inconclusive [activator, partial curve, poor fit]
29 | CCCN(CC(=O)Nc1ccc(F)c(F)c1F)C(=O)c1cc([N+](=O)[O-])ccc1N1CCOCC1 | inactive
30 | COC(=O)CCC(=O)Nc1ccc(N=Nc2ccccc2)cc1 | inconclusive [activator, full curve]
31 | O=C(/C=C/c1ccccc1)Nn1cnc2ccccc2c1=O | inconclusive [activator, full curve, poor fit]
32 | COCc1cc(C)nc(SCC(=O)Nc2ccc(C)c(C)c2)c1C#N | inconclusive [activator, partial curve, poor fit]
33 | COc1ccc(NC(=O)CN(C)C(=O)Cc2c(C)nc3ccccc3c2C)cc1 | inactive
34 | Cc1ccsc1/C=N/NC(=O)c1cccs1 | inconclusive [activator, full curve, poor fit]
35 | Cc1ccccc1C(=O)N1CCC(C(=O)NC2CCCC2)CC1 | inactive
36 | CC(=O)Oc1cc2c(C(C)=O)coc2c2ccccc12 | inactive
37 | Cc1cc(C)cc(OCC(=O)N2N=C(C(F)(F)F)CC2(O)C(C)(C)C)c1 (stereo unspecified) | inactive
38 | COc1ccc(-c2nnc(SCc3ccccc3)n2N)cc1 | inconclusive [activator, partial curve, poor fit]
39 | Cc1ccc(C(=O)NC(=S)Nc2cccc(-c3nc4ccccc4s3)c2)cc1 | inconclusive [activator, full curve, poor fit]
40 | COc1cc(/C=N/NC(=O)C2=NNC(=O)C2C)ccc1O (stereo unspecified) | inactive
41 | O=C(/C=C/c1ccccc1)c1ccoc1 | inconclusive [activator, partial curve, poor fit]
42 | N#CCCN(C(=O)COC(=O)C1CCN(S(=O)(=O)c2cccs2)CC1)c1ccccc1 | inactive
43 | Cc1cc(C)n(CC(=O)Nc2ccc(N3CCOCC3)c(Cl)c2)c(=O)c1C#N | inactive
44 | C=CCn1c(C)cc(C(=O)COC(=O)c2cncc(Br)c2)c1C | inconclusive [activator, full curve, poor fit]
45 | Cc1nc2c(ccc3nc(NC(=O)c4ccc5c(c4)OCCO5)sc32)s1 | inconclusive [activator, partial curve, poor fit]
46 | O=C(CN1CCCc2ccccc21)N/N=C/c1ccccc1 | inconclusive [activator, partial curve, poor fit]
47 | C[C@H](CO)N1C[C@H](C)[C@@H](CN(C)CC2CCCCC2)Oc2ccc(NC(=O)Cn3cnnn3)cc2C1=O | inactive
48 | O=[N+]([O-])c1ccc(OCCN2CCNCC2)cc1 | inactive

Row | Compound | Potency
49 | N#Cc1ccc(C2N=C(c3ccccc3)NO2)cc1 (stereo unspecified) | inconclusive [activator, partial curve, poor fit]
50 | CN(/N=C/c1ccncc1)c1cnn(-c2ccc(F)c(Cl)c2)c(=O)c1Cl | inconclusive [activator, partial curve, poor fit]
51 | O=S1(=O)N=C(Nc2nc3c(s2)CCCC3)c2ccccc21 | inconclusive [activator, full curve]
52 | CC(=O)Nc1cccc(C(=O)/C=C/c2ccc(N(C)C)cc2)c1 | inconclusive [activator, full curve, poor fit]
53 | Cc1ccc(C(=O)O/N=C(\N)c2nonc2N)cc1 | inconclusive [activator, partial curve, poor fit]
54 | COc1ccc(/C=N/Nc2nc(Nc3ccccc3)nc(N3CCCC3)n2)cc1[N+](=O)[O-] | inactive
55 | Cc1ccsc1C(=O)Nc1ccc(OCc2ccccc2)cc1 | inconclusive [activator, full curve, poor fit]
56 | Cc1ccc(Nc2nc(N)nc(CCl)n2)cc1 | inconclusive [activator, partial curve, poor fit]
57 | O=C(COc1cc2oc(=O)cc(-c3ccccc3)c2cc1Cl)NCc1ccccn1 | inactive
58 | COc1cc(C)nc(N2CCCC(C(=O)NC3CCC(C)CC3)C2)n1 (stereo unspecified) | inconclusive [activator, partial curve, poor fit]
59 | CCOC(=O)/C(C#N)=C/c1ccc(OCC(=O)Nc2ccccc2)c(OC)c1 | inconclusive [activator, full curve, poor fit]
60 | O=C(OCC(=O)N1CCN(c2ccccc2)CC1)c1ccccc1[N+](=O)[O-] | inconclusive [activator, full curve, poor fit]
61 | Cn1c(Cn2nnc(-c3ccccc3)n2)nnc1SCc1ccccc1Cl | inactive
62 | O=C(Nc1ccc(Cl)c(S(=O)(=O)N2CCOCC2)c1)c1ccc2c(c1)OCO2 | inactive
63 | CC1Cc2cc(/C(O)=C3/C(=O)C(=O)N(CC4CCCO4)C3c3ccco3)ccc2O1 (stereo unspecified) | inconclusive [activator, partial curve, poor fit]
64 | O=C(CSc1ccc(Cl)cc1)Nc1ccc(N2CCN(C(=O)c3ccc(Cl)cc3)CC2)cc1 | inactive
65 | CCC(=O)Nc1nc2ccc(NC(C)=O)cc2s1 | inconclusive [activator, partial curve, poor fit]
66 | CC(C)CC(=O)Nc1ccc(-c2nc3ccccc3c(=O)o2)cc1 | inconclusive [activator, single point]
67 | O=C(Nc1cc2c(cc1Cl)OCCCO2)c1ccco1 | inconclusive [activator, partial curve, poor fit]
68 | CC(c1ccc(F)cc1)n1c(-c2cccs2)n[nH]c1=S (stereo unspecified) | inactive
69 | COc1ccc(/C(N)=N/OC(=O)CSc2ccccc2)cc1OC | inconclusive [activator, partial curve, poor fit]
70 | Cc1ccc(N2C(=O)N(C(C)C)C(C)(C)CC2(C)O)cc1 (stereo unspecified) | inactive
71 | CC(=O)Nc1cccc(-c2nnc(-c3ccccc3)o2)c1 | inconclusive [activator, full curve, poor fit]

Source: PubChem BioAssay AID504706 (National Center for Advancing Translational Sciences (NCATS), 2011)
